{"source": "the supplement of paper PMC3334620", "note": "Over roughly 33,000 sequences, “E-score (-0.5 to 0.5)” has its median near -0.036; the highest 2% begin near 0.37. The list shows a part of the results."}
{"biological_target": "T1, Yer064c (UniProt P40041)", "T1 sequence": "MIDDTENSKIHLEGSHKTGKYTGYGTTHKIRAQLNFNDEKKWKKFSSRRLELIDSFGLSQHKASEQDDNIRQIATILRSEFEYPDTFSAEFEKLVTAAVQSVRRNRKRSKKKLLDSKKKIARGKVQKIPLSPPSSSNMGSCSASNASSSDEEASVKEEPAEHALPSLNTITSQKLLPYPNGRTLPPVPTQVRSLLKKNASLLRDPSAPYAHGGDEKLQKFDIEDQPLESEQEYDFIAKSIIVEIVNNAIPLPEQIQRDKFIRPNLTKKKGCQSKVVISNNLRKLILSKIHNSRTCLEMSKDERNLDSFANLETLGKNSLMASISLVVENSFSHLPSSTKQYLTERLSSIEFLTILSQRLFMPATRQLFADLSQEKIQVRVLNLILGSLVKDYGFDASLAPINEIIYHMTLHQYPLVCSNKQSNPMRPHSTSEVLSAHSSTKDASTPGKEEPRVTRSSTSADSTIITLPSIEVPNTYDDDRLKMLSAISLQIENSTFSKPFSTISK", "assay": "PBM E-score (8-mer binding enrichment) (E-score (-0.5 to 0.5)); higher = stronger / more preferred TF binding; most listed sequences are background and not binding sites", "conditions": "protein concentration: 200 nM; construct: GST-full length", "summary_of_the_method": "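GST-tagged yeast TFs (full-length or DNA-binding domain) were made by PURExpress in vitro transcription/translation and applied at about 100-200 nM to universal all-10-mer Agilent arrays. The arrays were made double-stranded by primer extension, on fresh or once-stripped slides. Bound protein was detected with fluorescent anti-GST, and scans were normalised with masliner. Each ungapped eight-base word, pooled with its reverse complement, received an E-score (modified Wilcoxon-Mann-Whitney statistic) from the Universal PBM Analysis Suite.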"}
{"sequence": "CGGCCCGA", "PBM E-score": -0.157}
{"sequence": "CAAGTCCA", "PBM E-score": -0.0608}
{"sequence": "CAACACGA", "PBM E-score": -0.0636}
{"sequence": "CGAATAAG", "PBM E-score": 0.0604}
{"sequence": "AACGCAAG", "PBM E-score": -0.12}
{"sequence": "GTATCGTA", "PBM E-score": -0.0408}
{"sequence": "TCGACCGA", "PBM E-score": -0.144}
{"sequence": "ACCACGCC", "PBM E-score": -0.0301}
{"sequence": "GCCTACGA", "PBM E-score": -0.0898}
{"sequence": "AAGCAAGA", "PBM E-score": -0.0626}
{"sequence": "ACCATTGA", "PBM E-score": 0.196}
{"sequence": "CTTATAGA", "PBM E-score": -0.0339}
{"sequence": "TAAGTCAA", "PBM E-score": 0.344}
{"sequence": "GACAATCC", "PBM E-score": -0.13}
{"sequence": "ACCGGGCG", "PBM E-score": -0.143}
{"sequence": "ATGGTTTC", "PBM E-score": 0.169}
{"sequence": "CAATTGGA", "PBM E-score": 0.0342}
{"sequence": "AGTACTGA", "PBM E-score": 0.255}
{"sequence": "ATGCTAGC", "PBM E-score": -0.123}
{"sequence": "ACTATCAG", "PBM E-score": 0.113}
{"sequence": "CAGACCGC", "PBM E-score": -0.0824}
{"sequence": "AATCAGTC", "PBM E-score": 0.368}
{"sequence": "CACATTCA", "PBM E-score": 0.0403}
{"sequence": "AGATCTCG", "PBM E-score": -0.219}
{"sequence": "CCAAAAAC", "PBM E-score": 0.155}
{"sequence": "CTCAGGAG", "PBM E-score": 0.298}
{"sequence": "ACGGCTGC", "PBM E-score": -0.222}
{"sequence": "CCATCGAA", "PBM E-score": -0.122}
{"sequence": "CACCAGTG", "PBM E-score": -0.006}
{"sequence": "CAGACTAG", "PBM E-score": 0.262}
{"sequence": "AGTTTCAC", "PBM E-score": 0.114}
{"sequence": "CGCTGGAC", "PBM E-score": -0.0398}
{"sequence": "CAGTTCCC", "PBM E-score": -0.123}
{"sequence": "AGAGTGGG", "PBM E-score": -0.15}
{"sequence": "ACTTCCGC", "PBM E-score": 0.13}
{"sequence": "ATAATCGA", "PBM E-score": 0.138}
{"sequence": "CAGTTGGG", "PBM E-score": 0.0278}
{"sequence": "ACCGTCGC", "PBM E-score": -0.193}
{"sequence": "ACGCATAC", "PBM E-score": -0.135}
{"sequence": "CGCAGTCA", "PBM E-score": 0.422}
{"sequence": "ACATGACT", "PBM E-score": 0.48}
{"sequence": "ACCTGTGG", "PBM E-score": -0.131}
{"sequence": "CTATTGCA", "PBM E-score": -0.0418}
{"sequence": "CAAATAGA", "PBM E-score": -0.0322}
{"sequence": "CTCCTAGA", "PBM E-score": -0.0479}
{"sequence": "AGAACCCT", "PBM E-score": -0.164}
{"sequence": "GTACAAGA", "PBM E-score": -0.00845}
{"sequence": "AGCTGTTA", "PBM E-score": 0.0047}
{"sequence": "AAGCTGTA", "PBM E-score": 0.0279}
{"sequence": "ATTGAGCA", "PBM E-score": 0.106}
{"sequence": "ACCCTCGA", "PBM E-score": -0.113}
{"sequence": "AAAATGAC", "PBM E-score": 0.196}
{"sequence": "ACATTAAT", "PBM E-score": 0.0719}
{"sequence": "CTTCAATC", "PBM E-score": 0.202}
{"sequence": "CGGAGGGC", "PBM E-score": -0.347}
{"sequence": "GATTGTCA", "PBM E-score": 0.152}
{"sequence": "ATAACCCA", "PBM E-score": 0.0412}
{"sequence": "AACCTAGC", "PBM E-score": -0.21}
{"sequence": "CCGTTGGA", "PBM E-score": -0.163}
{"sequence": "AGAGAGAG", "PBM E-score": -0.0213}
{"sequence": "TGCGTCAA", "PBM E-score": -0.294}
{"sequence": "CAATTCCC", "PBM E-score": -0.112}
{"sequence": "CATTGCAC", "PBM E-score": -0.00199}
{"sequence": "TCCGACGA", "PBM E-score": 0.129}
{"sequence": "ATCCGAAC", "PBM E-score": -0.122}
{"sequence": "AGCTTTCC", "PBM E-score": -0.279}
{"sequence": "AGAGCCGA", "PBM E-score": -0.121}
{"sequence": "AGGTGAGA", "PBM E-score": 0.0766}
{"sequence": "GGCTATTA", "PBM E-score": 0.101}
{"sequence": "CTAGTACA", "PBM E-score": 0.0257}
{"sequence": "CTCTGTGA", "PBM E-score": 0.179}
{"sequence": "CGTACCAA", "PBM E-score": -0.137}
{"sequence": "ACGTGATG", "PBM E-score": -0.1}
{"sequence": "ACCACGAA", "PBM E-score": 0.0355}
{"sequence": "GTGGACGA", "PBM E-score": 0.0034}
{"sequence": "AAACAGCG", "PBM E-score": 0.00149}
{"sequence": "ATGGCAGC", "PBM E-score": -0.22}
{"sequence": "CTCACTGC", "PBM E-score": 0.0462}
{"sequence": "AGGAAAAC", "PBM E-score": -0.285}
{"sequence": "TTTAAAAA", "PBM E-score": 0.133}
{"sequence": "GACTATTA", "PBM E-score": 0.379}
{"sequence": "AGGGAATC", "PBM E-score": 0.148}
{"sequence": "ATAACGAT", "PBM E-score": 0.11}
{"sequence": "ATGGATAA", "PBM E-score": 0.15}
{"sequence": "CATGTAGG", "PBM E-score": -0.0951}
{"sequence": "AGCCGTCG", "PBM E-score": -0.165}
